Results reported in US20240076343A1 (CEPHALON, published 2024).

B1: 2H7-hIgG1-LAGA-df-hIL-2 (T3A/D20A/R38E/C125A) (other)
heavy: EVQLLESGGGLVQPGGSLRLSCAASGFTFKDYCMTWVRQAPGKGLEWVSAIVYSGGSTYYADSVKGRFTISRDNSKNTLYLQMNNLRAEDTAVYYCAKYTRASYFYDAMDVWGQGTTVTVSS[not shown - human IgG1 constant region with L235A G237A (EU numbers)]APASSSTKKTQLQLEHLLLALQMILNGINNYKNPKLTEMLTFKFYMPKKATELKHLQCLEEELKPLEEVLNLAQSKNFHLRPRDLISNINVIVLELKGSETTFMCEYADETATIVEFLNRWITFAQSIISTLT
light: EIVLTQSPGTLSLSPGERATLSCRASQSIGKSFLAWYQQKPGQAPRLLIYDASTRAADIPARFSGSGSGTDFTLTISSLEPEDFAVYYCQQYYDWPPLSFGGGTKVEIKRTVAAPSVFIFPPSDEQLKSGTASVVCLLNNFYPREAKVQWKVDNALQSGNSQESVTEQDSKDSTYSLSSTLTLSKADYEKHKVYACEVTHQGLSSPVTKSFNRGEC
notes: antibody-hIL-2 fusion; also called 2H7-hIgG1-LAGA-hIL-2 (T3A/D20A/R38E/C125A)
B2: 2H7-hIgG4-LE-df-hIL-2 (T3A/R38E/I92K/C125A) (other)
heavy: EVQLLESGGGLVQPGGSLRLSCAASGFTFKDYCMTWVRQAPGKGLEWVSAIVYSGGSTYYADSVKGRFTISRDNSKNTLYLQMNNLRAEDTAVYYCAKYTRASYFYDAMDVWGQGTTVTVSSASTKGPSVFPLAPCSRSTSESTAALGCLVKDYFPEPVTVSWNSGALTSGVHTFPAVLQSSGLYSLSSVVTVPSSSLGTKTYTCNVDHKPSNTKVDKRV[not shown - human IgG4 Fc with changes]APASSSTKKTQLQLEHLLLDLQMILNGINNYKNPKLTEMLTFKFYMPKKATELKHLQCLEEELKPLEEVLNLAQSKNFHLRPRDLISNINVKVLELKGSETTFMCEYADETATIVEFLNRWITFAQSIISTLT
light: EIVLTQSPGTLSLSPGERATLSCRASQSIGKSFLAWYQQKPGQAPRLLIYDASTRAADIPARFSGSGSGTDFTLTISSLEPEDFAVYYCQQYYDWPPLSFGGGTKVEIKRTVAAPSVFIFPPSDEQLKSGTASVVCLLNNFYPREAKVQWKVDNALQSGNSQESVTEQDSKDSTYSLSSTLTLSKADYEKHKVYACEVTHQGLSSPVTKSFNRGEC
notes: antibody-hIL-2 fusion; also called hIgG4-LE-hIL-2 (T3A/R38E/192K/C125A)
B3: 2H7-hIgG4-LAGA-df-hIL-2 (T3A/D20A/R38E/C125A) (other)
heavy: EVQLLESGGGLVQPGGSLRLSCAASGFTFKDYCMTWVRQAPGKGLEWVSAIVYSGGSTYYADSVKGRFTISRDNSKNTLYLQMNNLRAEDTAVYYCAKYTRASYFYDAMDVWGQGTTVTVSSASTKGPSVFPLAPCSRSTSESTAALGCLVKDYFPEPVTVSWNSGALTSGVHTFPAVLQSSGLYSLSSVVTVPSSSLGTKTYTCNVDHKPSNTKVDKRV[not shown - human IgG4 Fc with S228P L235A G237A (EU numbers)]APASSSTKKTQLQLEHLLLALQMILNGINNYKNPKLTEMLTFKFYMPKKATELKHLQCLEEELKPLEEVLNLAQSKNFHLRPRDLISNINVIVLELKGSETTFMCEYADETATIVEFLNRWITFAQSIISTLT
light: EIVLTQSPGTLSLSPGERATLSCRASQSIGKSFLAWYQQKPGQAPRLLIYDASTRAADIPARFSGSGSGTDFTLTISSLEPEDFAVYYCQQYYDWPPLSFGGGTKVEIKRTVAAPSVFIFPPSDEQLKSGTASVVCLLNNFYPREAKVQWKVDNALQSGNSQESVTEQDSKDSTYSLSSTLTLSKADYEKHKVYACEVTHQGLSSPVTKSFNRGEC
notes: antibody-hIL-2 fusion; also called 2H7-hIgG4-LAGA-hIL-2 (T3A/D20A/R38E/C125A)
B4: 2H7-hIgG4-LAGA-df-hIL-2 (T3A/R38E/I92K/C125A) (other)
heavy: EVQLLESGGGLVQPGGSLRLSCAASGFTFKDYCMTWVRQAPGKGLEWVSAIVYSGGSTYYADSVKGRFTISRDNSKNTLYLQMNNLRAEDTAVYYCAKYTRASYFYDAMDVWGQGTTVTVSSASTKGPSVFPLAPCSRSTSESTAALGCLVKDYFPEPVTVSWNSGALTSGVHTFPAVLQSSGLYSLSSVVTVPSSSLGTKTYTCNVDHKPSNTKVDKRV[not shown - human IgG4 Fc with S228P L235A G237A (EU numbers)]APASSSTKKTQLQLEHLLLDLQMILNGINNYKNPKLTEMLTFKFYMPKKATELKHLQCLEEELKPLEEVLNLAQSKNFHLRPRDLISNINVKVLELKGSETTFMCEYADETATIVEFLNRWITFAQSIISTLT
light: EIVLTQSPGTLSLSPGERATLSCRASQSIGKSFLAWYQQKPGQAPRLLIYDASTRAADIPARFSGSGSGTDFTLTISSLEPEDFAVYYCQQYYDWPPLSFGGGTKVEIKRTVAAPSVFIFPPSDEQLKSGTASVVCLLNNFYPREAKVQWKVDNALQSGNSQESVTEQDSKDSTYSLSSTLTLSKADYEKHKVYACEVTHQGLSSPVTKSFNRGEC
notes: antibody-hIL-2 fusion; also called 2H7-hIgG4-LAGA-hIL-2 (T3A/R38E/192K/C125A)
B5: 1H3-hIgG1-L6-hCD25(1-164)-L20-hIL-2 (D20S) (other)
heavy: EVQLVESGGGLVQPGRSLKLSCAVSGFTFSDYAMAWVRQAPKKGLEWVATISYDGSRTYYRDSVKGRFTISRDNAKITLYLQMDSLRSEDTATYYCARHGSGYFDYWGQGVMVTVSS[not shown - human IgG1 constant region]SGGGGSELCDDDPPEIPHATFKAMAYKEGTMLNCECKRGFRRIKSGSLYMLCTGNSSHSSWDNQCQCTSSATRNTTKQVTPQPEEQKERKTTEMQSPMQPVDQASLPGHCREPPPWENEATERIYHFVVGQMVYYQCVQGYRALHRGPAESVCKMTHGKTRWTQPQLICTSGGGGSGGGGSGGGGSGGGS[not shown - about 150 residues]
light: DTVLTQSPALAVSPGERVTISCRASESVRTGVHWYQQKPGQQPKLLIYGASNLESGVPARFSGSGSGTDFTLTIDPVEADDTATYFCQQSWNDPFTFGSGTKLEIKRTVAAPSVFIFPPSDEQLKSGTASVVCLLNNFYPREAKVQWKVDNALQSGNSQESVTEQDSKDSTYSLSSTLTLSKADYEKHKVYACEVTHQGLSSPVTKSFNRGEC

Tests used:
[1] = molecular target: T1, intermediate-affinity hIL-2 receptor (IL-2Rβγ) on TF1+IL-2Rβ cells (human, UniProt P14784 27-551; P31785 23-369); experiment: cell-based or functional assay
T1 sequence 1: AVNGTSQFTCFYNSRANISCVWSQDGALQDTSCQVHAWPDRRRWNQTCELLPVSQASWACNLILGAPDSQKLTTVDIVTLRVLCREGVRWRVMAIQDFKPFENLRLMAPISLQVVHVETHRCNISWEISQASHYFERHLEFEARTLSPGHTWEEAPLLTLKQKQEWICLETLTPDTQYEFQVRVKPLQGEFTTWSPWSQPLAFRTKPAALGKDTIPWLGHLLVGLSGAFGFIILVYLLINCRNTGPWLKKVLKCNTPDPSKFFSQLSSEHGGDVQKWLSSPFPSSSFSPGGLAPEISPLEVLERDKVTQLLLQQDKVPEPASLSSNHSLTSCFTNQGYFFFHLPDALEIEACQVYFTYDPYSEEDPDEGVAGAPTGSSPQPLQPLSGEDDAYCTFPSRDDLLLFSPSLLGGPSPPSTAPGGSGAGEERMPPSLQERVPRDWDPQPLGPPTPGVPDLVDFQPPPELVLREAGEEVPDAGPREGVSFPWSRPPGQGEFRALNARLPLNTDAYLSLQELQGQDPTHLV
T1 sequence 2: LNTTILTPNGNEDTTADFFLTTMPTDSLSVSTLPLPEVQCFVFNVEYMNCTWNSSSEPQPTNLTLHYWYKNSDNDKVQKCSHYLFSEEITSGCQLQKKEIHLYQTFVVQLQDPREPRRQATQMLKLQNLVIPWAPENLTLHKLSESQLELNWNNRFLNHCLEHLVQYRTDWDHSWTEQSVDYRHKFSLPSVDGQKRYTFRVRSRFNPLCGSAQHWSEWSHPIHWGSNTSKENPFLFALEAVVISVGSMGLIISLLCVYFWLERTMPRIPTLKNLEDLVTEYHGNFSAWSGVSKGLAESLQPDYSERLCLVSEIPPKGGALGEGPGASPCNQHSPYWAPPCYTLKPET

[2] = molecular target: T1, intermediate-affinity hIL-2 receptor …; experiment: cell-based or functional assay; remark: listed apart in the source
[3] = molecular target: T2, high-affinity hIL-2 receptor (IL-2Rαβγ) on NK-92 cells (human, UniProt P01589 22-272; P14784 27-551; P31785 23-369); experiment: cell-based or functional assay
T2 sequence 1: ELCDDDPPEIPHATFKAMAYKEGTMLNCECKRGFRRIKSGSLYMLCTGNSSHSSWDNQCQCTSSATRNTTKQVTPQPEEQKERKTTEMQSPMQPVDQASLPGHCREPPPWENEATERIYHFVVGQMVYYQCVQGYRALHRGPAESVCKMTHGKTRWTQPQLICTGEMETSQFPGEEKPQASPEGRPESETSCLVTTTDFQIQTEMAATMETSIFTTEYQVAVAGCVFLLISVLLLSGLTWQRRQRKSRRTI
T2 sequence 2: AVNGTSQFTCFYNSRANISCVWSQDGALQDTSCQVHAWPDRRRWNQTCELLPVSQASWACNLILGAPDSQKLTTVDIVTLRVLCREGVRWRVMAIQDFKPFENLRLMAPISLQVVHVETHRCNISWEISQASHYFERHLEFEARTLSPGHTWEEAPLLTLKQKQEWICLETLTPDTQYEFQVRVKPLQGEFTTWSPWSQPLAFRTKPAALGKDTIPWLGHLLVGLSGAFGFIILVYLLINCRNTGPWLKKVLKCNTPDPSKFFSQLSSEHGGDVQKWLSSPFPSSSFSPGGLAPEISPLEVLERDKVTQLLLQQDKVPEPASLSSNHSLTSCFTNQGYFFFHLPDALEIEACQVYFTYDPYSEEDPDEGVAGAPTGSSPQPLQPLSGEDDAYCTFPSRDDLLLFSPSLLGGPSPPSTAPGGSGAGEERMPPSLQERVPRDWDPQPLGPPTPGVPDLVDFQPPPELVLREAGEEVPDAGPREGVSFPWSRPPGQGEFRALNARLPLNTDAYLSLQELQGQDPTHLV
T2 sequence 3: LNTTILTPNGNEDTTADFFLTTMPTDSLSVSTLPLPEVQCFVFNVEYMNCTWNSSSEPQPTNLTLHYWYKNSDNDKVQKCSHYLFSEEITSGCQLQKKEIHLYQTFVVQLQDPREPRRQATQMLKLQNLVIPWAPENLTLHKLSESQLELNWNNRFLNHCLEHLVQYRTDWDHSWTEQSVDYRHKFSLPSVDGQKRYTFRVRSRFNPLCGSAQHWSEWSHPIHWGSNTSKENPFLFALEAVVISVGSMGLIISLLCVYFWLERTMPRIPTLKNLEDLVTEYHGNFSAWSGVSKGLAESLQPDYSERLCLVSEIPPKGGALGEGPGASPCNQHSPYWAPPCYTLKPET

[4] = molecular target: T3, recombinant His-tagged cynomolgus PD-1 (Acro Biosystems) (cynomolgus, UniProt B0LAJ3 25-170); experiment: SPR Carterra LSA;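 note: antibodies or fusion proteins amine-coupled on an HC30M chip, soluble His-tagged human or cynomolgus PD-1 titrated over them, non-regenerative kinetics, constants fitted from titration curves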
T3 construct: His-tagged; also called Cyno PD-1; not shown: His tag (and any linker) of the Acro Biosystems product

[5] = molecular target: T4, recombinant His-tagged human PD-1 (Acro Biosystems) (human, UniProt Q15116 partial chain); experiment: SPR Carterra LSA;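 note: antibodies or fusion proteins amine-coupled on an HC30M chip, soluble His-tagged human or cynomolgus PD-1 titrated over them, non-regenerative kinetics, constants fitted from titration curves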
T4 construct: His-tagged; also called hPD-1

[6] = molecular target: T5, intermediate affinity hIL-2 receptor complex (IL-2Rβγ) on TF1+IL-2Rβ cells (human, UniProt P14784 27-551; P31785 23-369); experiment: cell-based or functional assay
T5 sequence 1: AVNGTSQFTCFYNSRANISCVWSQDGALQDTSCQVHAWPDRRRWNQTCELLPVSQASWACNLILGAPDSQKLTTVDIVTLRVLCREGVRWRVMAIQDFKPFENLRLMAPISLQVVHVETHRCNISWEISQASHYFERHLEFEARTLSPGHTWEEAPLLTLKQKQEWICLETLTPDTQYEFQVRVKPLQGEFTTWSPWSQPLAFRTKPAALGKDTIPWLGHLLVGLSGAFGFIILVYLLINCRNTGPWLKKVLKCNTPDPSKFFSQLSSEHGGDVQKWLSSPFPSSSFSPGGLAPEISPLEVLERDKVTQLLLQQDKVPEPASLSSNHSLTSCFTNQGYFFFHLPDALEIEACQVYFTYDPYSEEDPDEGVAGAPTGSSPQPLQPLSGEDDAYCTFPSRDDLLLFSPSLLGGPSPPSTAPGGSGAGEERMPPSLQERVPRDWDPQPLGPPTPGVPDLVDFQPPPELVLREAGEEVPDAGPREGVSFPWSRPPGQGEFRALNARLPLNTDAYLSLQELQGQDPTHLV
T5 sequence 2: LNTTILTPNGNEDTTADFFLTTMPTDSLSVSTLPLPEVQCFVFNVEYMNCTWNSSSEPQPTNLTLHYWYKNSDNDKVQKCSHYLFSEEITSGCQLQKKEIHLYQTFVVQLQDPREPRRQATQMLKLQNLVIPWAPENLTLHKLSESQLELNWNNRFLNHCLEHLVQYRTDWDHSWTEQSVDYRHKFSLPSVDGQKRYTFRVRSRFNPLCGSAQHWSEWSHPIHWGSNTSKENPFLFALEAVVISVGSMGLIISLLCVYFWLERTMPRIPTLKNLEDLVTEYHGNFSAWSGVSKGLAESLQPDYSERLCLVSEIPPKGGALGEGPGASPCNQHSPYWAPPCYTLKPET

T4 sequence (Q15116 25-167 limits assumed): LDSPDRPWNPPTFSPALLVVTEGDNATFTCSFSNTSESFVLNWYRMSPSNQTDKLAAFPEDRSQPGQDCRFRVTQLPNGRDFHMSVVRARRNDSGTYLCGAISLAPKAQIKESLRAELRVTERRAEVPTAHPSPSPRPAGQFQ
T3 sequence (B0LAJ3 entry or part of it limits assumed): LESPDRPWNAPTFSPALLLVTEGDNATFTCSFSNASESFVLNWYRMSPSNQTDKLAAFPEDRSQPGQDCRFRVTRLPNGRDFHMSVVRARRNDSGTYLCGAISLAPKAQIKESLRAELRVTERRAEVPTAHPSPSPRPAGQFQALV

Binder	Fold decrease from rhIL-2 (TF1 + IL-2Rβ + hPD-1) [1] [fold]	Fold change from rhIL-2 (TF1 + IL-2Rβ) [2] [fold]	Fold change from rhIL-2 (NK-92) [3] [fold]	Kd [4] [nM]	koff [4] [s⁻¹]	kon [4] [M⁻¹ s⁻¹]	Kd [5] [nM]	koff [5] [s⁻¹]	kon [5] [M⁻¹ s⁻¹]	Fold change from hIL-2 (TF1 + IL-2Rβ) [6] [fold]
B1	~1	~3430	> 10000	11	0.00097	88000	5.4	0.00083	150000	–
B2	~1	–	–	12	0.0011	95000	4.7	0.00088	190000	–
B3	~1	~7480	> 10000	10	0.00098	96000	4.8	0.00082	170000	–
B4	~1	–	–	11	0.0011	100000	3.7	0.00082	220000	–
B5	–	–	–	–	–	–	–	–	–	14
